For 33 compounds, normalised cell viability results are on record in the supplement of paper PMC6609913.

The test concerns V-C8 + BRCA2 (BRCA2-proficient hamster cells). Put plainly: normalised cell viability (fraction of plate median); higher = more viable cells (less toxic). Conditions: 5 µM. The essentials: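 Cell viability was measured with a resazurin assay, normalised to the plate median (modified robust per cent of sample) and averaged over triplicate wells. Hamster V-C8 cells lacking BRCA2 and V-C8 cells with BRCA2 restored were seeded in 96-well plates. After 24 h, library drugs from 10 mM DMSO stocks were added at a final 5 μM in 100 μl medium and left for 3 days (screen 1) or 6 days (screen 2), with solvent-only wells alongside.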

SMILES strings stand for the structures. Structures can show the parent of a compound that is named as a salt. ± gives the standard deviation of the averaged measurements. Over roughly 1,300 compounds, “normalised cell viability” has its median near 1; the lowest 2% begin near 0.15. This is one part of the list.

Regarding `CCOc1nc2cccc(C(=O)O)c2n1Cc1ccc(-c2ccccc2-c2nnn[nH]2)cc1` [Candesartan], the normalised cell viability (treatment time: 3 days) was 0.991 ± 0.082 and the normalised cell viability (treatment time: 6 days) stood at 1.03 ± 0.083.
In the case of `C[C@@](Cc1ccc(O)c(O)c1)(NN)C(=O)O` [Carbidopa], the normalised cell viability was 1.06 ± 0.075 (treatment time: 3 days) and 1.03 ± 0.068 (treatment time: 6 days).
With `Cn1c(=O)c2c(ncn2CC2OCCO2)n(C)c1=O` [Doxofylline], the normalised cell viability reads like this: (treatment time: 3 days) 1 ± 0.028; (treatment time: 6 days) 1.03 ± 0.034.
Take `CN1CCN(CC(=O)N2c3ccccc3C(=O)Nc3cccnc32)CC1` [Pirenzepine dihydrochloride]: the normalised cell viability worked out at 1.13 ± 0.098 (treatment time: 3 days) and 1.14 ± 0.03 (treatment time: 6 days).
For `CN(CCCCCCCCCCN(C)C(=O)Oc1cccc([N+](C)(C)C)c1)C(=O)Oc1cccc([N+](C)(C)C)c1` [Demecarium bromide] the same measures were 1.01 ± 0.027 and 0.978 ± 0.027.
For the compound `CC(=O)N(CC(O)CO)c1c(I)c(C(=O)NCC(O)CO)c(I)c(C(=O)NCC(O)CO)c1I` (stereo unspecified) [Iohexol], the normalised cell viability worked out at 1.05 ± 0.021 (treatment time: 3 days) and 0.988 ± 0.028 (treatment time: 6 days).
`COC(=O)Nc1nc2cc(Sc3ccccc3)ccc2[nH]1` [Fenbendazole]: the normalised cell viability runs as follows: (treatment time: 3 days) 0.183 ± 0.0078; (treatment time: 6 days) 0.179 ± 0.017.
For `Nc1ccc(S(=O)(=O)Nc2nccs2)cc1` [Sulfathiazole], the normalised cell viability came out at 0.988 ± 0.022 (treatment time: 3 days) and 1 ± 0.065 (treatment time: 6 days).
For `CC(CNC1CCCCC1)OC(=O)c1ccccc1` (stereo unspecified) [Hexylcaine hydrochloride] the same measures were 0.967 ± 0.028 and 1 ± 0.012.
As for `Cc1ccc(-c2cc(C(F)(F)F)nn2-c2ccc(S(N)(=O)=O)cc2)cc1` [Celecoxib], the normalised cell viability is, setting by setting: (treatment time: 3 days) 1.06 ± 0.065; (treatment time: 6 days) 1.06 ± 0.051.
As to `CC[C@H]1OC(=O)[C@H](C)[C@@H](O[C@H]2C[C@@](C)(OC)[C@@H](O)[C@H](C)O2)[C@H](C)[C@@H](O[C@@H]2O[C@H](C)C[C@H](N(C)C)[C@H]2O)[C@](C)(O)C[C@@H](C)CN(C)[C@H](C)[C@@H](O)[C@]1(C)O` [Azithromycin], the normalised cell viability is, setting by setting: (treatment time: 3 days) 1.03 ± 0.039; (treatment time: 6 days) 0.955 ± 0.041.
As for `C[C@@H]1CCC[C@H](C)N1NC(=O)c1ccc(Cl)c(S(N)(=O)=O)c1` [Clopamide], the normalised cell viability reads like this: (treatment time: 3 days) 1.22 ± 0.11; (treatment time: 6 days) 0.9899 ± 0.0083.
For `CN[C@H]1CC[C@@H](c2ccc(Cl)c(Cl)c2)c2ccccc21` [Sertraline] the same measures were 0.701 ± 0.035 and 0.705 ± 0.018.
For the compound `CC(=O)Nc1c(I)c(C(=O)N[C@H]2C(O)O[C@H](CO)[C@@H](O)[C@@H]2O)c(I)c(N(C)C(C)=O)c1I` (stereo partly specified) [Metrizamide], the normalised cell viability (treatment time: 3 days) was found to be 1.04 ± 0.07 and the normalised cell viability (treatment time: 6 days) turned out to be 1.02 ± 0.12.
Regarding `CCN(CC)CCNC(=O)c1ccc(N)cc1` [Procainamide hydrochloride], the normalised cell viability (treatment time: 3 days) is 1.09 ± 0.059 and the normalised cell viability (treatment time: 6 days) was found to be 1 ± 0.036.
With `CNCC(O)c1ccc(O)c(O)c1` (stereo unspecified) [Racepinephrine HCl], the normalised cell viability reads like this: (treatment time: 3 days) 0.962 ± 0.018; (treatment time: 6 days) 0.946 ± 0.02.
For `CCOC1O[C@H]([C@@H](COCc2ccccc2)OCc2ccccc2)[C@H](OCc2ccccc2)[C@H]1O` (stereo partly specified) [Tribenoside] the same measures were 0.9859 ± 0.0075 and 0.919 ± 0.019.
In the case of `Clc1ccc2nsnc2c1NC1=NCCN1` [Tizanidine HCl], the normalised cell viability is, setting by setting: (treatment time: 3 days) 0.974 ± 0.026; (treatment time: 6 days) 1.03 ± 0.016.
On to `CC(=O)Nc1nnc(S(N)(=O)=O)s1` [Acetazolamide], for which the normalised cell viability is, setting by setting: (treatment time: 3 days) 0.895 ± 0.068; (treatment time: 6 days) 1 ± 0.045.
Turning to `Cc1cc2cc3c(C)cc(=O)oc3c(C)c2o1` [Trioxsalen], the normalised cell viability is 0.991 ± 0.036 (treatment time: 3 days) and 0.818 ± 0.12 (treatment time: 6 days).
`CC(C)Oc1ccc2c(=O)c(-c3ccccc3)coc2c1` [Ipriflavone]: the normalised cell viability amounted to 0.993 ± 0.029 (treatment time: 3 days) and 1.08 ± 0.11 (treatment time: 6 days).
For `CCCCOc1cc(C(=O)OCCN(CC)CC)ccc1N` [Benoxinate hydrochloride], the normalised cell viability runs as follows: (treatment time: 3 days) 1.29 ± 0.087; (treatment time: 6 days) 1.29 ± 0.011.
For `C[C@]12CC[C@@H]3c4ccc(O)cc4C[C@@H](CCCCCCCCC[S+]([O-])CCCC(F)(F)C(F)(F)F)[C@H]3[C@@H]1CC[C@@H]2O` (stereo partly specified) [Fulvestrant] the same measures were 0.671 ± 0.042 and 0.733 ± 0.011.
On to `CO/N=C(\C(=O)N[C@@H]1C(=O)N2C(C(=O)O)=C(COC(C)=O)CS[C@H]12)c1csc(N)n1` [Cefotaxime sodium salt], for which the normalised cell viability is, setting by setting: (treatment time: 3 days) 1.11 ± 0.094; (treatment time: 6 days) 1.1 ± 0.076.
For `CC(C)[C@H](N)C(=O)OCCOCn1cnc2c(=O)nc(N)[nH]c21` [Valacyclovir hydrochloride] the same measures were 1.04 ± 0.12 and 1.05 ± 0.046.
For `CN1CCN2c3ncccc3Cc3ccccc3C2C1` (stereo unspecified) [Mirtazapine] the same measures were 1.04 ± 0.045 and 1 ± 0.085.
In the case of `CN(C(=O)CN(CCO)CC(=O)N(C)C(C)(C)Cc1ccccc1)C(C)(C)Cc1ccccc1` [Oxethazaine], the normalised cell viability (treatment time: 3 days) was 0.326 ± 0.21 and the normalised cell viability (treatment time: 6 days) amounted to 0.247 ± 0.038.
For `COC(=O)N/N=C/c1c[n+]([O-])c2ccccc2[n+]1[O-]` [Carbadox] the same measures were 1.03 ± 0.017 and 0.978 ± 0.03.
In the case of `COc1cc(NS(=O)(=O)c2ccc(N)cc2)ncn1` [Sulfamonomethoxine], the normalised cell viability by setting is: (treatment time: 3 days) 1.01 ± 0.011; (treatment time: 6 days) 1.03 ± 0.02.
Consider `CC1(C)O[C@@H]2C[C@H]3[C@@H]4C[C@H](F)C5=CC(=O)C=C[C@]5(C)[C@@]4(F)[C@@H](O)C[C@]3(C)[C@]2(C(=O)CO)O1` [Fluocinolone acetonide], for which the normalised cell viability (treatment time: 3 days) was found to be 1.04 ± 0.034 and the normalised cell viability (treatment time: 6 days) was 1.16 ± 0.078.
`Cc1cc(C)nc(NS(=O)(=O)c2ccc(N)cc2)n1` [Sulfamethazine sodium salt]: the normalised cell viability is 1.04 ± 0.026 (treatment time: 3 days) and 1.02 ± 0.04 (treatment time: 6 days).
On to `CC(C(O)c1ccc(O)cc1)N1CCC(Cc2ccccc2)CC1` (stereo unspecified) [Ifenprodil tartrate], for which the normalised cell viability (treatment time: 3 days) was determined as 0.995 ± 0.035 and the normalised cell viability (treatment time: 6 days) came out at 0.982 ± 0.024.
In the case of `COc1ccc(Cl)cc1C(=O)NCCc1ccc(S(=O)(=O)NC(=O)NC2CCCCC2)cc1` [Glibenclamide], the normalised cell viability stood at 1.05 ± 0.051 (treatment time: 3 days) and 0.818 ± 0.18 (treatment time: 6 days).
